# The supplement of paper PMC8728848
# The list shows a part of the results.
# B1: Epa9 (Candida glabrata), CAGL0A01386g (protein)
# chain: MGSSHHHHHHSSGLVPRGSHMDITPFAHYPRPEGCSSPPNAVSVGLHMDLYNYPYLYVKNPRTGFTNDTDSDADGETDGDSAGGIEGRAGQCWNPEYQDPNFPRYGYKKYGSFGSSDHVNGKISWDHNEFKEGCKPIMARLPTAYNYPAKITFSNFTMVLSGYFKPKSTGLYKFEIHADDFILFNFGSKNAFECCNREESIDNFGPYVAYAMWPNEADQELEVYLFEDSYYPIRLFYNNRDYHSKFMVGFYPPNTEEITYDFDGYLYMLDDTGNECKDSIRYKTVCDD
# Experiments:
# Assay in all cases: glycan array binding signal (z-score within array); higher = stronger binding
# Settings in all cases: glycan notation: IUPAC condensed, linker removed
# Gal(b1-3)GalNAc(b1-3)Gal = target: Gal(b1-3)GalNAc(b1-3)Gal
# Procedure, shortened: (§1)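 From the Consortium for Functional Glycomics database, 3228 arrays were curated, keeping only those whose protein sequence was available. Binding is given as a within-array Z-score averaged across arrays sharing a protein sequence and across linkers. Negative Z-scores can be read as non-binding.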
# [1] = target: Gal(b1-3)GalNAc(b1-3)Gal(a1-4)Gal(b1-4)Glc
# Procedure, shortened: as §1
# [2] = target: Gal(b1-3)GalNAc(b1-4)Gal(b1-4)Glc
# Procedure, shortened: as §1
# [3] = target: Gal(b1-3)GalNAc(b1-4)[Neu5Ac(a2-3)]Gal(b1-4)Glc
# Procedure, shortened: as §1
# Gal(b1-3)GlcNAc = target: Gal(b1-3)GlcNAc
# Procedure, shortened: as §1
# [4] = target: Gal(b1-3)GlcNAc(a1-3)Gal(b1-4)GlcNAc
# Procedure, shortened: as §1
# [5] = target: Gal(b1-3)GlcNAc(a1-6)Gal(b1-4)GlcNAc
# Procedure, shortened: as §1
# Gal(b1-3)GlcNAc(b1-2)Man = target: Gal(b1-3)GlcNAc(b1-2)Man
# Procedure, shortened: as §1
# [6] = target: Gal(b1-3)GlcNAc(b1-2)Man(a1-3)[Gal(b1-3)GlcNAc(b1-2)Man(a1-6)]Man(b1-4)GlcNAc(b1-4)GlcNAc
# Procedure, shortened: as §1
# [7] = target: Gal(b1-3)GlcNAc(b1-2)Man(a1-3)[Gal(b1-3)GlcNAc(b1-2)Man(a1-6)]Man(b1-4)GlcNAc(b1-4)[Fuc(a1-6)]GlcNAc
# Procedure, shortened: as §1
# [8] = target: Gal(b1-3)GlcNAc(b1-2)Man(a1-3)[GlcNAc(b1-4)][Gal(b1-3)GlcNAc(b1-2)Man(a1-6)]Man(b1-4)GlcNAc(b1-4)GlcNAc
# Procedure, shortened: as §1
# [9] = target: Gal(b1-3)GlcNAc(b1-2)[Gal(b1-3)GlcNAc(b1-6)]Man(a1-6)[Gal(b1-3)GlcNAc(b1-2)Man(a1-3)]Man(b1-4)GlcNAc(b1-4)GlcNAc
# Procedure, shortened: as §1
# [10] = target: Gal(b1-3)GlcNAc(b1-3)Gal(b1-3)GlcNAc
# Procedure, shortened: as §1
# [11] = target: Gal(b1-3)GlcNAc(b1-3)Gal(b1-4)Glc
# Procedure, shortened: as §1
# [12] = target: Gal(b1-3)GlcNAc(b1-3)Gal(b1-4)GlcNAc
# Procedure, shortened: as §1
# [13] = target: Gal(b1-3)GlcNAc(b1-3)Gal(b1-4)GlcNAc(b1-2)Man(a1-3)[Gal(b1-3)GlcNAc(b1-3)Gal(b1-4)GlcNAc(b1-2)Man(a1-6)]Man(b1-4)GlcNAc(b1-4)GlcNAc
# Procedure, shortened: as §1
# [14] = target: Gal(b1-3)GlcNAc(b1-3)Gal(b1-4)GlcNAc(b1-2)[Gal(b1-3)GlcNAc(b1-3)Gal(b1-4)GlcNAc(b1-6)]Man(a1-6)[Gal(b1-3)GlcNAc(b1-3)Gal(b1-4)GlcNAc(b1-2)Man(a1-3)]Man(b1-4)GlcNAc(b1-4)[Fuc(a1-6)]GlcNAc
# Procedure, shortened: as §1
# [15] = target: Gal(b1-3)GlcNAc(b1-3)Gal(b1-4)GlcNAc(b1-3)Gal(b1-4)GlcNAc(b1-2)[Gal(b1-3)GlcNAc(b1-3)Gal(b1-4)GlcNAc(b1-3)Gal(b1-4)GlcNAc(b1-6)]Man(a1-6)[Gal(b1-3)GlcNAc(b1-3)Gal(b1-4)GlcNAc(b1-3)Gal(b1-4)GlcNAc(b1-2)Man(a1-3)]Man(b1-4)GlcNAc(b1-4)[Fuc(a1-6)]GlcNAc
# Procedure, shortened: as §1
# [16] = target: Gal(b1-3)GlcNAc(b1-3)Gal(b1-4)GlcNAc(b1-6)[Gal(b1-3)GlcNAc(b1-3)]Gal(b1-4)Glc
# Procedure, shortened: as §1
# [17] = target: Gal(b1-3)GlcNAc(b1-3)Gal(b1-4)[Fuc(a1-3)]GlcNAc
# Procedure, shortened: as §1
# [18] = target: Gal(b1-3)GlcNAc(b1-3)Gal(b1-4)[Fuc(a1-3)]GlcNAc(b1-6)[Gal(b1-3)GlcNAc(b1-3)]Gal(b1-4)Glc
# Procedure, shortened: as §1
# [19] = target: Gal(b1-3)GlcNAc(b1-3)GalNAc
# Procedure, shortened: as §1
# [20] = target: Gal(b1-3)GlcNAc(b1-6)Gal(b1-4)GlcNAc
# Procedure, shortened: as §1
# [21] = target: Gal(b1-3)GlcNAc(b1-6)GalNAc
# Procedure, shortened: as §1
# [22] = target: Gal(b1-3)GlcNAc(b1-6)[Gal(b1-3)]GalNAc
# Procedure, shortened: as §1
# Gal(b1-3)GlcNAc6S = target: Gal(b1-3)GlcNAc6S
# Procedure, shortened: as §1
# [23] = target: Gal(b1-3)[Fuc(a1-4)]GlcNAc
# Procedure, shortened: as §1
# [24] = target: Gal(b1-3)[Fuc(a1-4)]GlcNAc(b1-2)Man
# Procedure, shortened: as §1
# [25] = target: Gal(b1-3)[Fuc(a1-4)]GlcNAc(b1-2)Man(a1-3)[Gal(b1-3)[Fuc(a1-4)]GlcNAc(b1-2)Man(a1-6)]Man(b1-4)GlcNAc(b1-4)[Fuc(a1-6)]GlcNAc
# Procedure, shortened: as §1
# [26] = target: Gal(b1-3)[Fuc(a1-4)]GlcNAc(b1-3)Gal(b1-3)[Fuc(a1-4)]GlcNAc
# Procedure, shortened: as §1
# [27] = target: Gal(b1-3)[Fuc(a1-4)]GlcNAc(b1-3)Gal(b1-4)[Fuc(a1-3)]GlcNAc
# Procedure, shortened: as §1
# [28] = target: Gal(b1-3)[Fuc(a1-4)]GlcNAc(b1-6)GalNAc
# Procedure, shortened: as §1
# [29] = target: Gal(b1-3)[GlcNAc(b1-6)]GalNAc
# Procedure, shortened: as §1
# [30] = target: Gal(b1-3)[Neu5Ac(a2-6)]GalNAc
# Procedure, shortened: as §1
# [31] = target: Gal(b1-3)[Neu5Ac(a2-6)]GlcNAc(b1-4)Gal(b1-4)Glc
# Procedure, shortened: as §1
# [32] = target: Gal(b1-3)[Neu5Ac(b2-6)]GalNAc
# Procedure, shortened: as §1
# Gal(b1-4)Gal = target: Gal(b1-4)Gal
# Procedure, shortened: as §1
# [33] = target: Gal(b1-4)GalNAc(a1-3)[Fuc(a1-2)]Gal(b1-4)GlcNAc
# Procedure, shortened: as §1
binder,measurement,setting,value
B1,glycan array binding signal (z-score),Gal(b1-3)GalNAc(b1-3)Gal,2.25
same,glycan array binding signal (z-score),[1],1.98
same,glycan array binding signal (z-score),[2],4.13
same,glycan array binding signal (z-score),[3],1.98
same,glycan array binding signal (z-score),Gal(b1-3)GlcNAc,-0.178
same,glycan array binding signal (z-score),[4],-0.307
same,glycan array binding signal (z-score),[5],0.032
same,glycan array binding signal (z-score),Gal(b1-3)GlcNAc(b1-2)Man,-0.191
same,glycan array binding signal (z-score),[6],0.269
same,glycan array binding signal (z-score),[7],0.01
same,glycan array binding signal (z-score),[8],0.211
same,glycan array binding signal (z-score),[9],0.074
same,glycan array binding signal (z-score),[10],-0.11
same,glycan array binding signal (z-score),[11],-0.173
same,glycan array binding signal (z-score),[12],-0.175
same,glycan array binding signal (z-score),[13],-0.137
same,glycan array binding signal (z-score),[14],-0.027
same,glycan array binding signal (z-score),[15],0.598
same,glycan array binding signal (z-score),[16],0.703
same,glycan array binding signal (z-score),[17],-0.34
same,glycan array binding signal (z-score),[18],0.241
same,glycan array binding signal (z-score),[19],-0.282
same,glycan array binding signal (z-score),[20],0.901
same,glycan array binding signal (z-score),[21],-0.392
same,glycan array binding signal (z-score),[22],0.864
same,glycan array binding signal (z-score),Gal(b1-3)GlcNAc6S,-0.028
same,glycan array binding signal (z-score),[23],-0.398
same,glycan array binding signal (z-score),[24],-0.431
same,glycan array binding signal (z-score),[25],-0.377
same,glycan array binding signal (z-score),[26],-0.443
same,glycan array binding signal (z-score),[27],-0.461
same,glycan array binding signal (z-score),[28],-0.345
same,glycan array binding signal (z-score),[29],0.878
same,glycan array binding signal (z-score),[30],0.269
same,glycan array binding signal (z-score),[31],-0.329
same,glycan array binding signal (z-score),[32],-0.225
same,glycan array binding signal (z-score),Gal(b1-4)Gal,-0.43
same,glycan array binding signal (z-score),[33],0.148
